The assay has as its target T1, Sla1 (S. cerevisiae, UniProt P32790 1-1244).
T1 construct: Sla1, S. cerevisiae; Each copy carries one of the two tags; source: S. cerevisiae, chromosomally tagged at the endogenous locus, in living cells; not shown: 3myeGFP, C-terminal, kept; 3mCherry, C-terminal, kept
T1 sequence (looked up): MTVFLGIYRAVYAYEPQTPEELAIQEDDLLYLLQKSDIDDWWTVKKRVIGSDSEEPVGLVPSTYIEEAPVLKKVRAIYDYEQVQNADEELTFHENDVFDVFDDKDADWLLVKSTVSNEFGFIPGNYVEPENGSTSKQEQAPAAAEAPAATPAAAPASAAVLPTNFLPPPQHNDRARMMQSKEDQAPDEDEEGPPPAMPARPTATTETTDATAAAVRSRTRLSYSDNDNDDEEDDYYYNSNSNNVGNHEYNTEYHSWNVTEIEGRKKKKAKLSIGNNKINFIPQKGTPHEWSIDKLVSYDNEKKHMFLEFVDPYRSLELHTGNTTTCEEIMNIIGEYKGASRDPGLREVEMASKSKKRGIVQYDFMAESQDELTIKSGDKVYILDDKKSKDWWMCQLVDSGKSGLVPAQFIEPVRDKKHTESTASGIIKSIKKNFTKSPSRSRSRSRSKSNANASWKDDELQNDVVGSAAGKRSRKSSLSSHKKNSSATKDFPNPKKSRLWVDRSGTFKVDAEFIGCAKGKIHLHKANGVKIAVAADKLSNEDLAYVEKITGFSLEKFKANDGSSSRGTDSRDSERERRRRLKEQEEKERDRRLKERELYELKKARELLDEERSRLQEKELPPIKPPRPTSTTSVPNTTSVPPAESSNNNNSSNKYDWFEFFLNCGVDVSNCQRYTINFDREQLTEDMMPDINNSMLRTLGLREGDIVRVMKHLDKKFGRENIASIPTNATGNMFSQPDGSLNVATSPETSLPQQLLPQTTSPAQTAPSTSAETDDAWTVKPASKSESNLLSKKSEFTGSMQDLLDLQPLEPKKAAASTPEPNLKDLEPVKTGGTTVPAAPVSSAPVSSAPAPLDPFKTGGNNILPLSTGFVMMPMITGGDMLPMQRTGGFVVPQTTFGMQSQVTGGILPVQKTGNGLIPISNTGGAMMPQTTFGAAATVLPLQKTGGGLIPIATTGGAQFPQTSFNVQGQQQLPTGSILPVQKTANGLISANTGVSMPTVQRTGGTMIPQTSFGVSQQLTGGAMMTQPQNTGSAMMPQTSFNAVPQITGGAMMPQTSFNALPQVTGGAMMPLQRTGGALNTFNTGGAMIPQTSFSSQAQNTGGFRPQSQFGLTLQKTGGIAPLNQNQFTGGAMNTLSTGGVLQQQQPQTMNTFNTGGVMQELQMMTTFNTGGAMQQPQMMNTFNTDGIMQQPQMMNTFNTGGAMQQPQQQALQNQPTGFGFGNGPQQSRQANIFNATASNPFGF
Kind of assay: fluorescence cross-correlation spectroscopy (FCCS); living yeast cells, observation volume in the cytoplasm; one protein tagged with (3)myeGFP/eGFP and the other with 3mCherry in the same strain; apparent (effective) KD; interactions up to ~1 μM detectable. The settings on record: partners not purified.

B1: Las17 (natural protein)
chain: not shown
notes: Fused to single myeGFP instead of 3myeGFP; Each copy carries one of the two tags; also called Wiskott–Aldrich syndrome protein (WASP) Las17; source: S. cerevisiae, chromosomally tagged at the endogenous locus, in living cells; not shown: myeGFP (single), C-terminal, kept; 3mCherry, C-terminal, kept
With B1, the Kd was 286 nM.

(Values after PMC4299599, “Quantification of cytosolic interactions identifies Ede1 oligomers as key organizers of endocytosis” (Molecular Systems Biology, 2014).)
